Assay results from the supplement of paper PMC3334620.
Over roughly 33,000 sequences, “E-score (-0.5 to 0.5)” has its median near -0.035; the highest 2% begin near 0.34. The list shows a part of the results.

What follows are sequences tested against T1, Mot3 (UniProt P54785) (assay: PBM E-score (8-mer binding enrichment) (E-score (-0.5 to 0.5)); higher = stronger / more preferred TF binding; most listed sequences are background and not binding sites). Conditions: protein concentration: 200 nM; construct: GST-full length.
T1 sequence: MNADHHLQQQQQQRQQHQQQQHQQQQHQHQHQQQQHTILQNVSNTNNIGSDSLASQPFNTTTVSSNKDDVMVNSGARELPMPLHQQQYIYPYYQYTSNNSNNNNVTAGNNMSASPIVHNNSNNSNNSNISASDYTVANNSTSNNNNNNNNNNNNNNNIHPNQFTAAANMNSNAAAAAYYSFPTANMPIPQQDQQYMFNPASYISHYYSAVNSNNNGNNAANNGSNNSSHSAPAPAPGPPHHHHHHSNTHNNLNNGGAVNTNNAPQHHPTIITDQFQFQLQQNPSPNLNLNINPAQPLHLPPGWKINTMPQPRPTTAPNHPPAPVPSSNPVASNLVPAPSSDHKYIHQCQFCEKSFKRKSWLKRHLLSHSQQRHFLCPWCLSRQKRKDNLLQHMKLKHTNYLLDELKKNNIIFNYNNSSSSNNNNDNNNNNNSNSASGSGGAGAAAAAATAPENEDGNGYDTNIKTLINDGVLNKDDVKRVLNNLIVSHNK
Procedure, shortened: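 Bound GST-tagged yeast transcription factors, applied at about 100-200 nM to double-stranded universal all-10-mer Agilent arrays, were detected with fluorescent anti-GST. Scans were normalised with masliner. A modified Wilcoxon-Mann-Whitney statistic, the E-score, was assigned to each ungapped eight-base word pooled with its reverse complement by the Universal PBM Analysis Suite.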

Sequence | PBM E-score
AATGAAAG | 0.114
AGCGAGTG | -0.0613
TCAATACA | 0.229
AGAGCACC | -0.233
ATTAACTC | 0.0273
GCCGTGAA | -0.128
TGGCGCAA | -0.185
AGTCGACG | 0.0704
AGGGTAGC | -0.192
AGATTAAG | -0.0517
GGGTGAAA | -0.0283
GGTGTCTA | 0.117
ATCCTCGC | -0.265
CGCGCGCA | -0.0351
GCACGTCC | -0.0142
CACCCCGA | -0.202
TGTTCTAA | 0.217
AACGGGAC | -0.145
GTTGACCA | -0.0835
AAGTTACT | 0.0279
CCTAGAGG | 0.0418
CGTACGGA | -0.119
ACTATACC | -0.124
ATAAGCAG | 0.0596
ACCCGGGC | -0.0284

Sequence | PBM E-score
ATTGCGAA | -0.0223
AGTCGGTA | -0.214
AACCCAGG | -0.0292
GGTGGTAA | 0.0789
ACTCTACC | -0.0524
TGGAAGAA | 0.00562
ATCATGCC | -0.0878
AGGAGAGA | -0.128
GAGACTCC | -0.307
CGCTGTCC | -0.0445
CAAAAGTG | -0.00942
CGAAAGTC | -0.0261
AAAGAGTG | 0.011
CACTGCGC | -0.0918
AGTAAAAG | 0.0823
GTCCACTA | 0.132
GTCAAGTA | 0.131
AACGAGTC | -0.139
AGCATTGG | -0.0872
AGCCTCGC | -0.216
CATAACCA | -0.0284
ATTAGTGA | -0.0459
GTGAGTCA | -0.0203
GTAAGAAA | 0.0284
CATCCACC | -0.159

Sequence | PBM E-score
CCAGACCG | -0.216
AAAGTACT | 0.085
CCCACAGC | 0.00286
AGCCCGGC | -0.296
ACCATGTG | 0.0765
TCCCATCA | -0.0825
AAAGCGTC | -0.137
ATAATTAG | 0.087
TATGGTAA | -0.0433
GGCATGTA | 0.376
GCGTGGAA | -0.104
GTACAAAC | 0.177
GTTTTTAA | 0.197
ACCGTCGG | -0.131
ATCGCCGG | -0.166
ACCCCTCG | -0.288
GCTCCACC | -0.268
AGCTCAAC | -0.0373
AGTGACTG | 0.00473
AACCCATA | -0.0273
GCTCTACC | -0.187
AAAAAGAA | 0.179
AGTATCCC | -0.156
AACATTGT | 0.257
TCTCTGAA | 0.0118

Sequence | PBM E-score
AATGAAAT | 0.0278
AACTCGGT | 0.0176
AATTACGG | -0.136
ATAGAATC | -0.0974
ACATGATG | 0.241
ATGATGGC | -0.171
AGCTACAA | -0.0573
ACGAGAGA | -0.068
GATGCTAC | -0.122
CCCGTGCC | 0.211
AAAATAGA | 0.0123
ATTCAGTC | -0.14
AAATCACA | 0.0993
AGCGGCCA | -0.332
CGATCCCC | -0.168
AGTGCTGC | -0.277
CAGTTATC | -0.223
AAACTCTA | 0.0123
CAGGTTAA | 0.18
CTATGAGA | -0.143
AAAATCTA | 0.121
ACGGAGGC | 0.00578
GGAGTTGA | -0.0647
GATCACGC | 0.0934
TCCCGCAA | 0.0144

Sequence | PBM E-score
CGTGACGA | -0.00942
ACACTACA | 0.332
ACTCTCCG | -0.0347
CTCCTAGC | -0.0699
ACGAATAG | 0.0127
CCAGTAGG | -0.00042
TATTACCA | 0.162
TAGTACGA | -0.0632
CCCCCCTC | -0.4
TATAGTAA | 0.121
ACCAATTA | 0.157
GACAACAC | 0.261
AAGCGCAT | -0.12
CGAGTCGC | -0.329
ACTCTTAT | 0.0679
TATACAGA | 0.109
CGCATACA | 0.0684
GCGGTAGA | -0.181
GACCGTTA | -0.14
CATCGCAC | -0.18
TCAGGACA | -0.0495
CGCGTCTC | 0.012
CAGTACCC | -0.15
ACCCACTG | -0.204
ACCTAAAA | 0.215

Sequence | PBM E-score
GGCGTTCA | -0.0928
CCTGGTAA | -0.0215
ATTGATAA | -0.0626
CCTAGTAG | 0.143
CCCGACGA | -0.191
CACCATGC | -0.274
GAGTTTTA | 0.0998
AGCACAAA | 0.129
ACCATCGT | -0.0908
CAGATGGG | -0.164
CAAGACGG | -0.246
ACCGAATA | 0.0681
GTCCCGGA | -0.171
GCATGAAC | 0.00175
GCGGAATA | 0.0122
CGGCGTTC | -0.112
CGTAGCAA | -0.0416
CGGTAGGC | 0.0651
GTGGCTTA | -0.00462
GAGGCTTA | -0.166
CGCAGTCC | -0.23
CTTCCAAC | 0.0652
TTTTAAAA | 0.115
AGTGTACA | 0.273
AGGGGAGA | -0.14

Sequence | PBM E-score
GCACGCAC | -0.102
TCACGCGA | 0.0705
AACGGGAG | 0.06
CCCCTTAA | -0.0659
TCTCGGCA | -0.155
ACACATAA | 0.271
CCTCGAGA | -0.00989
ACCTCACT | -0.11
ACACGTAG | 0.287
TAGACGGA | -0.142
AAGCTGCT | -0.0746
GCGGGACC | -0.243
GAGCTTTA | -0.0371
ATGTCAGA | 0.0802
AGATATCC | -0.144
AAATGATT | 0.113
GTAAAGGA | 0.257
CACTTGAG | -0.231
ACCCCCTA | -0.298
AGGGACAA | -0.26
ACGATCGC | -0.0801
AGCGAACA | -0.0143
